Source: patent US20170319711A1 (Pfizer, published 2017)

T1: Human 5T4 antigen on cells (human, UniProt Q13641 32-420)
T1 sequence: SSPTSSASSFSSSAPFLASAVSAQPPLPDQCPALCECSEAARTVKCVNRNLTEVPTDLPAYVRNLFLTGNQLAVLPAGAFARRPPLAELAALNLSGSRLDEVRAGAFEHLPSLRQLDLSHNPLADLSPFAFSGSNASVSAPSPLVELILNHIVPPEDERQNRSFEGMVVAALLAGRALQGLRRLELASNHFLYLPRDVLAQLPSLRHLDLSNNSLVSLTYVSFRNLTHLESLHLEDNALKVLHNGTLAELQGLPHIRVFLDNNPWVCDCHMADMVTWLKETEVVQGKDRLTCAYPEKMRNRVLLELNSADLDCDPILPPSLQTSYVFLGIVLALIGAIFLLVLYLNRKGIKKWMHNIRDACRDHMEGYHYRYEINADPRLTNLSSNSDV


Tests used:
[1] = target: T1, Human 5T4 antigen on cells; assay: cell-based or functional assay
[2] = target: T1, Human 5T4 antigen on cells; assay: cell-based or functional assay; remark: listed apart in the source
[3] = target: T1, Human 5T4 antigen on cells; assay: flow cytometry, 10 ug/mL, MDAMD361-DYT2 cells
Protocol: (§1) Cells expressing the 5T4 antigen, and the negative control Raji cells, are plated at a density of 500,000 cells/well on non-tissue culture treated 96 well plates and kept on ice. Dilutions of the A1 and A1-IgG4 antibodies or A1-mcMMAF ADC are made in 3% bovine serum albumin BSA in Dulbecco's phosphate buffered saline (DPBS) and added to the plate at a final concentration of 10 μg/mL. The plates are then incubated on ice for 1 hour followed by 2 washes. The secondary antibody, PE (phycoerythrin) conjugated Goat Anti-Human IgG Fc is added to the wells. After 30 minutes of incubation at 4 C, the mean fluorescence intensity is then measured using a flow cytometer.

[4] = target: T1, Human 5T4 antigen on cells; assay: flow cytometry, 10 ug/mL, A431 cells
Protocol: as §1

[5] = target: T1, Human 5T4 antigen on cells; assay: flow cytometry, 10 ug/mL, MDAMB468 cells
Protocol: as §1

[6] = target: T1, Human 5T4 antigen on cells; assay: flow cytometry, 10 ug/mL, PC3mm2 cells
Protocol: as §1

Row | Mean Fluorescent Intensity [3] | Mean Fluorescent Intensity [4] | Mean Fluorescent Intensity [5] | Mean Fluorescent Intensity [6] | Binder | IC50 of cell viability after four days, MDAMB361DYT2 cells [1] [ng Ab/ml] | IC50 of cell viability after four days, MDAMB435/5T4 cells [1] [ng Ab/ml] | IC50 of cell viability after four days, MDAMB468 cells [1] [ng Ab/ml] | IC50 of cell viability (MTS) after ten days, 37622a primary lung tumor cells [2] [ng Ab/ml]
1 | – | – | – | – | A3-vcMMAE (other, mc-Val-Cit-PABA-MMAE, residues not stated) heavy: EVQLVESGGGLVQPKGSLKLSCAASGFTFNTYAMNWVRQAPGKGLEWVARIRSKSNNYATYYADSVKDRFTISRDDSQSMLYLQMNNLKTEDTAMYYCVRQWDYDVRAMNYWGQGTLVTVSS[human IgG1 constant region not printed] light: DIVMTQSHIFMSTSVGDRVSITCKASQDVDTAVAWYQQKPGQSPKLLIYWASTRLTGVPDRFTGSGSGTDFTLTISNVQSEDLADYFCQQYSSYPYTFGQGTKLEIKRTVAAPSVFIFPPSDEQLKSGTASVVCLLNNFYPREAKVQWKVDNALQSGNSQESVTEQDSKDSTYSLSSTLTLSKADYEKHKVYACEVTHQGLSSPVTKSFNRGEC | 86.8 | 3.5 | 161 | 78.1
2 | – | – | – | – | A3-mcMMAF (other, mc-MMAF, residues not stated) heavy: EVQLVESGGGLVQPKGSLKLSCAASGFTFNTYAMNWVRQAPGKGLEWVARIRSKSNNYATYYADSVKDRFTISRDDSQSMLYLQMNNLKTEDTAMYYCVRQWDYDVRAMNYWGQGTLVTVSS[human IgG1 constant region not printed] light: DIVMTQSHIFMSTSVGDRVSITCKASQDVDTAVAWYQQKPGQSPKLLIYWASTRLTGVPDRFTGSGSGTDFTLTISNVQSEDLADYFCQQYSSYPYTFGQGTKLEIKRTVAAPSVFIFPPSDEQLKSGTASVVCLLNNFYPREAKVQWKVDNALQSGNSQESVTEQDSKDSTYSLSSTLTLSKADYEKHKVYACEVTHQGLSSPVTKSFNRGEC | 31 | 0.3 | 27.7 | 77.2
3 | 6900 | 3400 | 2800 | 2700 | A1-mcMMAF ADC (other, maleimidocaproyl-monomethylauristatin F (mc-MMAF) on reduced Cys residues, positions not given, also called 5T4-A1 antibody drug conjugate) heavy: EVQLVESGGGLVQPGGSLRLSCAASGYTFTNFGMNWVRQAPGKGLEWVAWINTNTGEPRYAEEFKGRFTISRDNAKNSLYLQMNSLRAEDTAVYYCARDWDGAYFFDYWGQGTLVTVSS[human IgG1 constant region not printed] light: DIQMTQSPSSLSASVGDRVTITCKASQSVSNDVAWYQQKPGKAPKLLIYFATNRYTGVPSRFSGSGYGTDFTLTISSLQPEDFATYYCQQDYSSPWTFGQGTKVEIKRTVAAPSVFIFPPSDEQLKSGTASVVCLLNNFYPREAKVQWKVDNALQSGNSQESVTEQDSKDSTYSLSSTLTLSKADYEKHKVYACEVTHQGLSSPVTKSFNRGEC | 104 | 1.3 | 534 | 504
4 | – | – | – | – | A1-vcMMAE (other, mc-Val-Cit-PABA-MMAE on reduced Cys residues, positions not given) heavy: EVQLVESGGGLVQPGGSLRLSCAASGYTFTNFGMNWVRQAPGKGLEWVAWINTNTGEPRYAEEFKGRFTISRDNAKNSLYLQMNSLRAEDTAVYYCARDWDGAYFFDYWGQGTLVTVSS[human IgG1 constant region not printed] light: DIQMTQSPSSLSASVGDRVTITCKASQSVSNDVAWYQQKPGKAPKLLIYFATNRYTGVPSRFSGSGYGTDFTLTISSLQPEDFATYYCQQDYSSPWTFGQGTKVEIKRTVAAPSVFIFPPSDEQLKSGTASVVCLLNNFYPREAKVQWKVDNALQSGNSQESVTEQDSKDSTYSLSSTLTLSKADYEKHKVYACEVTHQGLSSPVTKSFNRGEC | 158 | 6.8 | 7670 | 443
